The campaign covered roughly 43,000 compounds. About 200 (0.47%) were called active. Another 12% or so got no clear call; they are omitted. Calls follow the shape of the dose curve; as a rule, active = well fitted cell-killing curve with a large enough effect; inconclusive = small, poorly fitted or top-dose-only effect, or effect the other way; inactive = flat fitted curve, though single readings scatter. The list shows a part of the results.
Experiment: Cell viability qHTS assay in S16 Pmp22-F2sN cells; also: nearly all actives have a fitted effect of over 65% in size
Details: S16 Pmp22-F2sN Schwann cells (luciferase reporters placed in the Pmp22 gene) viability, CellTiter-Glo, 24 h; series mostly up to 57.5 µM; activity change, negative = cytotoxicity: at the top concentration
Outline: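 Seed 500-1,000 S16 Pmp22-F2sN cells per well in phenol-red-free DMEM with 10% heat-inactivated FBS; pin-add 23 nL compound; incubate 24 h at 37C; add CellTiter-Glo, wait 15 min protected from light; read luminescence.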
% is scaled to controls: 0 for no effect and ±100 for the full control effect.

| SMILES | activity change, negative = cytotoxicity |
| --- | --- |
| CCOC(=O)Cc1c(C)nc2c(-c3ccc(Cl)cc3)c(C(F)(F)F)nn2c1C | inactive: 5.7% |
| COc1ccc(-c2noc(CSc3nnc(Cc4ccccc4)n3-c3cccc(C)c3)n2)cc1 | inactive: -23.4% |
| O=C(COc1ccccc1)Nc1nnc(SCc2cc(=O)n3cc(Cl)ccc3n2)s1 | inactive: -3.62% |
| COc1ccc(CCNC(=O)CCS(=O)(=O)c2cc3c(cc2Cl)NC(=O)CO3)cc1OC | inactive: 13.6% |
| Cc1cc(C)cc(NC(=O)c2cc(S(=O)(=O)N3CCCC3)ccc2F)c1 | inactive: -14.6% |
| Cc1cccc(CSc2nnc(CCCCCN)o2)c1 | inactive: 1.64% |
| Cc1ccc(C)c(NC(=O)c2nnn(Cc3ccc(F)cc3Cl)c2N)c1 | inactive: -15.5% |
| CCc1c(C)sc2c1CCN(C(=O)Nc1cc(C)ccc1C)C2c1ccc(OC)cc1 (configuration not stated) | inactive: -23.8% |
| COc1ccc(OC)c(CCNC(=O)Cn2nc(C)n3c(cc4sccc43)c2=O)c1 | inactive: 3.92% |
| COc1ccc(-n2ncc(C(=O)NCCN3CCOCC3)c2C2CCN(C(=O)OC(C)(C)C)CC2)cc1 | inactive: 4.1% |
| COc1ccc(CCNS(=O)(=O)c2ccc(N3CCCCS3(=O)=O)cc2)cc1 | inactive: -8.85% |
| CCC1Oc2ccccc2N(CC(=O)NCCc2ccc(OC)c(OC)c2)C1=O (configuration not stated) | inactive: 2.64% |
| COc1cc(OC)c(NC(=O)N2CCc3cc(S(=O)(=O)N4CCC(C)CC4)ccc32)cc1Cl | inactive: 12.3% |
| O=c1oc2ccc3ccccc3c2cc1-c1nnc(Nc2cccc(C(F)(F)F)c2)s1 | inactive: 1.45% |
| COc1ccc(NC(=O)Cn2c(=O)n(Cc3ccco3)c(=O)c3oc4ccccc4c32)cc1Cl | inactive: -4.77% |
| Cc1nnc(N2CCC(C(=O)NC(C)C)CC2)c2nn(-c3ccccc3)c(C)c12 | inactive: -16.2% |
| Clc1ccccc1CN1CCc2nc(N3CCN(c4ncccn4)CC3)ncc2C1 | inactive: 18.1% |
| Cc1ccc(-c2noc(-c3nnn(-c4ccc(Br)cc4F)c3C)n2)cc1 | inactive: -17.7% |
| O=C(Nc1ccc(F)cc1)c1cc2cc3ccc(Cl)cc3nc2o1 | inactive: 6.69% |
| COc1ccc(-n2ncc3c2ncn2nc(Cc4ccccc4)nc32)cc1 | inactive: 2.02% |
| Cc1ccccc1CNCc1c(C(=O)O)c(C)n(Cc2ccc(F)cc2Cl)c1C | inactive: 0.0016% |

| SMILES | activity change, negative = cytotoxicity |
| --- | --- |
| O=C(Nc1cccc(C(F)(F)F)c1)C1CCN(S(=O)(=O)c2cccs2)CC1 | inactive: -17.4% |
| C=C(C)Cn1c(SCC(=O)c2ccccc2)nc2sc3c(c2c1=O)CCCC3 | inactive: 23.8% |
| CC(=O)Nc1c(C)nn(-c2ccccc2)c1N1CCC(C(=O)NCc2ccc(F)cc2)CC1 | inactive: 3.25% |
| CC(=O)c1ccc(NC(=O)CSc2nnc(N)s2)cc1 | inactive: -16.8% |
| CCn1cc2nc(SCc3cccc(C(F)(F)F)c3)n(Cc3ccc(OC)cc3)c(=O)c2n1 | inactive: -27.6% |
| O=c1c2oc3ccccc3c2n(Cc2ccc(Cl)cc2)c(=O)n1Cc1ccccc1 | inactive: 2.88% |
| CCC1CCCCN1C(=O)CCS(=O)(=O)c1cc2c(cc1C)NC(=O)CO2 (configuration not stated) | inactive: 9.97% |
| Cc1ccc(Nc2c(-c3ccc(C)o3)nc3cccc(C)n23)cc1 | inactive: -8.7% |
| O=C(CNC(=O)c1ccccc1)OCc1cc(=O)n2nc(C3CC3)sc2n1 | inactive: -4.61% |
| COc1ccc(-c2cc(=O)oc3c4c(ccc23)OCN(Cc2ccccc2)C4)cc1 | inactive: 6.85% |
| Cc1ccc(NC(=O)c2oc3ccccc3c2NC(=O)C23CC4CC(CC(C4)C2)C3)cc1 | inactive: 11.2% |
| CCOc1ccc(Nc2ncnc3scc(-c4ccc(OC)cc4)c23)cc1 | inactive: -1.49% |
| Cc1ccc(C(=O)NCc2ccccc2)cc1NC(=O)c1nsc2ccccc12 | inactive: -25.5% |
| Cn1cc(C(=O)NCCc2ccccc2)c(=O)c2cc(S(=O)(=O)N3CCCCC3)ccc21 | inactive: -1.64% |
| CC(C)(C)OC(=O)N1CCC(c2c(C(=O)N3CCN(Cc4ccccc4)CC3)cnn2-c2ccc(Cl)cc2)CC1 | inactive: -26.7% |
| CCc1ccc(N2C(=O)CN(S(=O)(=O)CC)CC2(C)C(=O)NC2CCCCC2)cc1 (configuration not stated) | inactive: 13.3% |
| CCOC(=O)c1c(C)[nH]c(C)c1S(=O)(=O)N1CCC(C(=O)Nc2ccc(C)c(N(C)C)c2)CC1 | inactive: -22.4% |
| Cc1ccc2oc(=O)n(Cc3ccccc3Cl)c2c1 | inactive: 3.58% |
| CCc1ccc(OCC(=O)Nc2cc(-c3nc4cc(C)ccc4o3)ccc2C)cc1 | inactive: 16.8% |
| CCCNC(=O)C1CCC(CNS(=O)(=O)c2ccc3c(c2)CC(C)N3C(C)=O)CC1 (configuration not stated) | inactive: -4.21% |
| CN(Cc1ccc(F)cc1)S(=O)(=O)c1nnc(NC(=O)c2ccccc2)s1 | inactive: -3.33% |

| SMILES | activity change, negative = cytotoxicity |
| --- | --- |
| CCOc1c(Cl)cc(C(=O)N(Cc2ccc(N(C)C)cc2)Cc2ccco2)cc1Cl | inactive: -0.611% |
| CCc1cccc(C)c1Nc1c(-c2ccsc2)nc2ncccn12 | inactive: 5.54% |
| Cc1ccc2c(c1)c1c3n2CCN(C(=O)c2cccc(C(F)(F)F)c2)C3CCC1 (configuration not stated) | inactive: 9.44% |
| Cc1ccc(C)c(Cn2c3ccccc3c3cnn(CC(=O)NCCc4ccccc4)c(=O)c32)c1 | inactive: 8.18% |
| COc1ccc(N2CCN(Cc3nnc(-c4ccc5c(c4)OCO5)o3)CC2)cc1 | inactive: -3.03% |
| Clc1ccc(-c2noc(-c3cccnc3NCc3ccco3)n2)cc1 | inactive: 8.47% |
| Cc1cccc(CNC(=O)CCCN2C(=O)CCn3nc(-c4cccn4C)cc32)c1 | inactive: 19.7% |
| Cc1ccc(-n2nc(C)c3nc(CCC(=O)Nc4cccc(F)c4)c(=O)n(C)c32)cc1 | inactive: 2.23% |
| Cc1ccc2c(=O)cc(C(=O)Nc3sc4c(c3C(=O)NCC3CCCO3)CCCC4)oc2c1 (configuration not stated) | inactive: 6% |
| COc1ccc(C2CC(=O)c3cc(-c4nc(-c5cccc(Cl)c5)cs4)c(=O)[nH]c3C2)cc1 (configuration not stated) | inactive: 0.372% |
| CSc1oc(-c2cccs2)nc1S(=O)(=O)c1ccc(Br)cc1 | inactive: -0.0965% |
| O=S(=O)(c1ccc(Cl)cc1Cl)n1ccnc1 | inactive: -2.67% |
| CCOc1ccccc1N(C)C(=O)c1c2c(nc3ccccc13)C(=O)N(C1CCCCC1)C2 | inactive: -25.8% |
| CCC(Sc1nc2ncccc2o1)C(=O)Nc1ccc(OC)c(OC)c1 (configuration not stated) | inactive: 7.04% |
| CCOc1ccc(Nc2nn(-c3ccc(OC(F)(F)F)cc3)nc2C(C)=O)cc1 | inactive: -3.83% |
| COc1cccc(Cn2c(-c3nonc3NC(C)=O)nc3ccccc32)c1 | inactive: -14.1% |
| CC(C)CCn1c(=O)c2cccnc2n(CC(=O)Nc2ccccc2F)c1=O | inactive: -1.23% |
| Cn1c2ccccc2c2cnn(CC(=O)Nc3ccccc3F)c(=O)c21 | inactive: -4.5% |
| Cc1cc(C)cc(NC(=O)c2c(C)oc3nc(C)nc(N4CCCC4)c23)c1 | inactive: 18.4% |
| CNC(=O)c1ccc2c(c1)N(Cc1ccccc1Cl)C(=O)c1ccccc1S2 | inactive: 7.15% |

From PubChem BioAssay AID1508642 (National Center for Advancing Translational Sciences (NCATS), 2021)
